The source of these data is the supplement of paper PMC12217912.

The list shows a part of the results. Sequences were assembled here from the parent chain. Inactive controls read about 0.05.

To fix the notation:
B1: TEV protease; numbered along this chain (parent)
chain: MGESLFKGPRDYNPISSSICHLTNESDGHTTSLYGIGFGPFIITNKHLFRRNNGTLVVQSLHGVFKVKDTTTLQQHLVDGRDMIIIRMPKDFPPFPQKLKFREPQREERICLVTTNFQTKSMSSMVSDTSCTFPSGDGIFWKHWIQTKDGQCGSPLVSTRDGFIVGIHSASNFTNTNNYFTSVPKNFMELLTNQEAQQWVSGWRLNADSVLWGGHKVFMVKPEEPFQPVKEATQL
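Note: Bxb1 expression induced with 0.2% (w/v) L-rhamnose at OD600 near 0.5, cultures sampled hourly, flipped fraction per protease–substrate barcode pair counted by paired-end Illumina sequencing.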

The test covers variants of B1. As to the kind of experiment: raw area under fraction-flipped curve 0-4 h after induction (AUC4h, not background-subtracted), DNA-recorder readout of cleavage of the substrate (dimensionless); higher = more cleavage of the substrate by the protease variant. Particulars: temperature: 34 °C; time window: 0-4 h after rhamnose induction.
Take MGESLFKGPRDYNPISSSICHLTNESDGHTTSLYNIGFGPFIITNKHLFRRNNGTLVVQSLHGVFKVKDTTTLQQHLVDGRDMIIIRMPKDFPPFPQKLKFREPQREERICLVTTNFQTKSMSSMVSDTSCTFPSGDGIFWKHWIQTKDGQCGSPLVSTRDGFIVGIHSASNFTNTNNYFTSVPKNFMELLTNQEAQQWVSGWRLNADSVLWGGHKVFMVKPEEPFQPVKEATQL [G35N]: the “area with substrate ENLYFQK” value stood at 0.0427, the “area with substrate ENLYFQN” value turned out to be 0.0465 and the “area with substrate ENLYFQS” value turned out to be 0.042.

Take MGESLFKGPRDYNPISSSICHLTNESDGHTTSLYCIGFGPFIITNKHLFRRNNGTLVVQSLHGVFKVKDTTTLQQHLVDGRDMIIIRMPKDFPPFPQKLKFREPQREERICLVTTNFQTKSMSSMVSDTSCTFPSGDGIFWKHWIQTKDGQCGSPLVSTRDGFIVGIHSASNFTNTNNYFTSVPKNFMELLTNQEAQQWVSGWRLNADSVLWGGHKVFMVKPEEPFQPVKEATQL [G35C]: the “area with substrate ENLYFQN” value was 0.0473, the “area with substrate ENLYFQS” value was determined as 0.0597, the “area with substrate ENLYFQT” value was determined as 0.0646 and the “area with substrate ENLYFQW” value was 0.0516.

In the case of MGESLFKGPRDYNPISSSICHLTNESDGHTTSLYGIGFGPFIITNKHLFRRNNGTLVVQSLHGVFKVKDTTTLQQHLVDGRDMPIIRMPKDFPPFPQKLKFREPQREERICLVTTNFQTKSMSSMVSDTSCTFPSGDGIFWKHWIQTKDGQCGSPLVSTRDGFIVGIHSASNFTNTNNYFTSVPKNFMELLTNQEAQQWVSGWRLNADSVLWGGHKVFMVKPEEPFQPVKEATQL [I84P], the “area with substrate ENLYFQK” value was 0.0279, the “area with substrate ENLYFQL” value amounted to 0.0271, the “area with substrate ENLYFQM” value was found to be 0.0491 and the “area with substrate ENLYFQP” value was found to be 0.0245. Further, the “area with substrate ENLYFQS” value amounted to 0.0497.

Regarding MGESLFKGPRDYNPISSSICHLTNESDGHTTSLYGIGFGPFIITNKHLFRRNNGTLVVQSLHGVFKVKDTTTLQQHLVDGRDMIIIRMPKDFPPFPQKLKFREPQREERICLVTTNFQTKSMSSMVSDTSCTFPSGDGIFWKHWIQTKDGQCGSPLVSTRDGFIVGIHSASNFTNTNNYFTSVPKNFMELLTNQEAQQWVSGWRLNADSVLWGGNKVFMVKPEEPFQPVKEATQL [H215N], the “area with substrate ENLYFQL” value is 0.0554, the “area with substrate ENLYFQM” value turned out to be 0.0373, the “area with substrate ENLYFQN” value was determined as 0.0382 and the “area with substrate ENLYFQQ” value came out at 0.0367. The “area with substrate ENLYFQR” value was found to be 0.0535, the “area with substrate ENLYFQS” value stood at 0.0624 and the “area with substrate ENLYFQW” value was found to be 0.0493.

For MGESLFKGPRDYNPISSSICHLTNESDGHTTSLYGIGFGPFIITNKHLFRRNNGTLVVQSLHGVFKVKDTTTLQQHLVDGRDMIIIRMPKDFPPFPQKLKFREPQREERICLVTTNFQTKSMSSMVSDTSCTFPSGDGIFWKHWIQTKDGQCGSPLVSTRDGFIVGIHSASNFTNTNNYFTSVPKNFMELLTNQVAQQWVSGWRLNADSVLWGGHKVFMVKPEEPFQPVKEATQL [E195V], the “area with substrate ENLYFQP” value is 0.0558, the “area with substrate ENLYFQQ” value amounted to 0.0628, the “area with substrate ENLYFQR” value turned out to be 0.0656 and the “area with substrate ENLYFQS” value amounted to 0.092.

MGESLFKGPRDYNPISSSICHLTNESDGHTTSLYGIGFGPFIITNKHLFRRNNGTLVVQSLHGVFKVKDTTTLQQHLVDGRDMIIIRMPKDFPPFPQKLKFREPQREERICLVTTNFQTKSMSSMVSDTSCTFPSGDGIFWKHWIQTKDGQCGSPLVSTRDGFIVGIHSASNFTNTNNYFTSVPKNFMELLTNQEAQQWVSGWRLNADSVLWGGHKVYMVKPEEPFQPVKEATQL [F218Y]: the “area with substrate ENLYFQM” value is 0.0771, the “area with substrate ENLYFQN” value is 0.0849, the “area with substrate ENLYFQR” value amounted to 0.0444 and the “area with substrate ENLYFQS” value is 0.107. Besides, the “area with substrate ENLYFQT” value is 0.119, the “area with substrate ENLYFQV” value came to 0.0723 and the “area with substrate ENLYFQW” value is 0.0809.

As to MGESLFKGPRDYNPISSSICHLTNESDGHTTSLYGIGFGPFIITNKHLFRRNNGTLVVQSLHGVFKVKDTTTLQQHLVDGRDMIIIRMPKDFPPFPQKLKFREPQREERICLVTTNFQTKSMSSMVSDTSCTFPSGDGIFWKHWPQTKDGQCGSPLVSTRDGFIVGIHSASNFTNTNNYFTSVPKNFMELLTNQEAQQWVSGWRLNADSVLWGGHKVFMVKPEEPFQPVKEATQL [I145P], the “area with substrate ENLYFQP” value came to 0.0608, the “area with substrate ENLYFQS” value is 0.0674 and the “area with substrate ENLYFQW” value was determined as 0.0587.

As to MGESLFKGPRDYNPISSSICHLTNESDGHTTSLYGIGFGPFIITNKHLFRRNNGTLVVQSLHGVFKVKDTTTLQQHLVDGRDMIIIRMPKDFPPFPQKLKFREPQREERICLVTTNFQTKSMSSMVSDTSCTFPSGDGIFWKHWIQTKDGQCGSPLVSTRDGFIVGIHSASNFTNTNNYFTSVPKNFMPLLTNQEAQQWVSGWRLNADSVLWGGHKVFMVKPEEPFQPVKEATQL [E189P], the “area with substrate ENLYFQK” value was determined as 0.0551, the “area with substrate ENLYFQL” value was 0.0901, the “area with substrate ENLYFQM” value came to 0.0924 and the “area with substrate ENLYFQN” value was 0.0776. In addition, the “area with substrate ENLYFQP” value was 0.0545, the “area with substrate ENLYFQR” value turned out to be 0.049, the “area with substrate ENLYFQS” value amounted to 0.0933 and the “area with substrate ENLYFQT” value turned out to be 0.0615. Also, the “area with substrate ENLYFQY” value came to 0.0479.

As to MGESLFKGPRDYNPISSSICHLTNESDGHTTSLYGIGFGPFIITNKHLFRRNNGTLVVQSLHGVFKVKDTTTLQQHLVDGRDMIIIRMPKDFPPFPQKLKFREPQREERICLVTTNFQTKSMSSMVSDTSCTFPSGDGIHWKHWIQTKDGQCGSPLVSTRDGFIVGIHSASNFTNTNNYFTSVPKNFMELLTNQEAQQWVSGWRLNADSVLWGGHKVFMVKPEEPFQPVKEATQL [F140H], the “area with substrate ENLYFQL” value was found to be 0.053, the “area with substrate ENLYFQQ” value was 0.0643, the “area with substrate ENLYFQR” value came to 0.038 and the “area with substrate ENLYFQS” value is 0.0587. In addition, the “area with substrate ENLYFQW” value is 0.0575.

Consider MGESLFKGPRDYNPISSSICHLTNESDGHTTSLYGIGFGPFIITNKHLFRRNNGTLVVQSLHGVFKVKDTTTLQQHLVDGRDMIIIRMPKDFPPFPQKLKFRFPQREERICLVTTNFQTKSMSSMVSDTSCTFPSGDGIFWKHWIQTKDGQCGSPLVSTRDGFIVGIHSASNFTNTNNYFTSVPKNFMELLTNQEAQQWVSGWRLNADSVLWGGHKVFMVKPEEPFQPVKEATQL [E103F], for which the “area with substrate ENLYFQL” value came out at 0.0643, the “area with substrate ENLYFQN” value was found to be 0.0795, the “area with substrate ENLYFQR” value was determined as 0.0699 and the “area with substrate ENLYFQS” value is 0.0918. The “area with substrate ENLYFQT” value came to 0.0617 and the “area with substrate ENLYFQW” value stood at 0.085.

Regarding MGESLFKGPRDYNPISSSICHLTNESDGHTTSLYGIGFGPFIITNKHLFRRNNGTLVVQSLHGVFKVKDTTTLQQHLVDGRDMIIIRMPKDFPPFPQKLKFREPQREERICLVTTNFQTKSMSSMVSDTSYTFPSGDGIFWKHWIQTKDGQCGSPLVSTRDGFIVGIHSASNFTNTNNYFTSVPKNFMELLTNQEAQQWVSGWRLNADSVLWGGHKVFMVKPEEPFQPVKEATQL [C131Y], the “area with substrate ENLYFQL” value stood at 0.0713 and the “area with substrate ENLYFQS” value was 0.101.
